# Results published in the supplement of paper PMC8728848.
# The other results are listed elsewhere or left out.
# B1: GH98CBM51-1 (Streptococcus pneumoniae) (protein)
# chain: MTYLSDMDWSSATHGDIDKTKTVQKDAPFTTGNKGEHTKISLLTSDDKVKYFDKGIGTVADSPSVISYDISGQGFEKFETYIGIDQSANSSRSDHAVVDRIEIEIDGKVVYSSSVTNPEGFRYNTQAQFISVTIPQNAKKISLKSFAGEHTWGDEVVFADAKLIKTVST
# Experiments:
# Assay in all cases: glycan array binding signal (z-score within array); higher = stronger binding
# Settings in all cases: glycan notation: IUPAC condensed, linker removed
# Fuc(a1-2)[Gal(a1-3)]Gal = molecular target: Fuc(a1-2)[Gal(a1-3)]Gal
# Summary of the method: (§1)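 Arrays were curated from the Consortium for Functional Glycomics database, 3228 in total, and kept only where the protein sequence was available. Binding is expressed as a within-array Z-score. This score was averaged across arrays of the same protein sequence at different concentrations or buffers and across linkers, and negative values can be read as non-binding.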
# [1] = molecular target: Fuc(a1-2)[Gal(a1-3)]Gal(b1-3)GlcNAc
# Summary of the method: as §1
# [2] = molecular target: Fuc(a1-2)[Gal(a1-3)]Gal(b1-3)GlcNAc(b1-2)Man(a1-3)[Fuc(a1-2)[Gal(a1-3)]Gal(b1-3)GlcNAc(b1-2)Man(a1-6)]Man(b1-4)GlcNAc(b1-4)GlcNAc
# Summary of the method: as §1
# [3] = molecular target: Fuc(a1-2)[Gal(a1-3)]Gal(b1-4)Glc
# Summary of the method: as §1
# [4] = molecular target: Fuc(a1-2)[Gal(a1-3)]Gal(b1-4)GlcNAc
# Summary of the method: as §1
# [5] = molecular target: Fuc(a1-2)[Gal(a1-3)]Gal(b1-4)GlcNAc(b1-2)Man(a1-3)[Fuc(a1-2)[Gal(a1-3)]Gal(b1-4)GlcNAc(b1-2)Man(a1-6)]Man(b1-4)GlcNAc(b1-4)GlcNAc
# Summary of the method: as §1
# [6] = molecular target: Fuc(a1-2)[Gal(a1-3)]Gal(b1-4)[Fuc(a1-3)]GlcNAc
# Summary of the method: as §1
# [7] = molecular target: Fuc(a1-2)[Gal(a1-4)]Gal(b1-4)GlcNAc
# Summary of the method: as §1
# [8] = molecular target: Fuc(a1-2)[GalNAc(a1-3)]Gal
# Summary of the method: as §1
# [9] = molecular target: Fuc(a1-2)[GalNAc(a1-3)]Gal(b1-3)GalNAc(a1-3)[Fuc(a1-2)]Gal(b1-4)GlcNAc
# Summary of the method: as §1
# [10] = molecular target: Fuc(a1-2)[GalNAc(a1-3)]Gal(b1-3)GlcNAc
# Summary of the method: as §1
# [11] = molecular target: Fuc(a1-2)[GalNAc(a1-3)]Gal(b1-3)GlcNAc(b1-2)Man(a1-3)[Fuc(a1-2)[GalNAc(a1-3)]Gal(b1-3)GlcNAc(b1-2)Man(a1-6)]Man(b1-4)GlcNAc(b1-4)GlcNAc
# Summary of the method: as §1
# [12] = molecular target: Fuc(a1-2)[GalNAc(a1-3)]Gal(b1-4)Glc
# Summary of the method: as §1
# [13] = molecular target: Fuc(a1-2)[GalNAc(a1-3)]Gal(b1-4)GlcNAc
# Summary of the method: as §1
# [14] = molecular target: Fuc(a1-2)[GalNAc(a1-3)]Gal(b1-4)GlcNAc(b1-2)Man(a1-3)[Fuc(a1-2)[GalNAc(a1-3)]Gal(b1-4)GlcNAc(b1-2)Man(a1-6)]Man(b1-4)GlcNAc(b1-4)GlcNAc
# Summary of the method: as §1
# [15] = molecular target: Fuc(a1-2)[GalNAc(a1-3)]Gal(b1-4)GlcNAc(b1-3)Gal(b1-4)GlcNAc
# Summary of the method: as §1
# [16] = molecular target: Fuc(a1-2)[GalNAc(a1-3)]Gal(b1-4)GlcNAc(b1-3)Gal(b1-4)GlcNAc(b1-3)Gal(b1-4)GlcNAc
# Summary of the method: as §1
# [17] = molecular target: Fuc(a1-2)[GalNAc(a1-3)]Gal(b1-4)[Fuc(a1-3)]GlcNAc
# Summary of the method: as §1
# [18] = molecular target: Fuc(a1-2)[GalNAc(a1-4)]Gal(b1-4)GlcNAc
# Summary of the method: as §1
# [19] = molecular target: Fuc(a1-2)[GalNAc(b1-3)]Gal
# Summary of the method: as §1
# Fuc(a1-3)GlcNAc = molecular target: Fuc(a1-3)GlcNAc
# Summary of the method: as §1
# [20] = molecular target: Fuc(a1-3)[Gal(b1-4)]Glc6S
# Summary of the method: as §1
# [21] = molecular target: Fuc(a1-3)[Gal(b1-4)]GlcNAc
# Summary of the method: as §1
# [22] = molecular target: Fuc(a1-3)[Gal(b1-4)]GlcNAc(b1-2)Man(a1-3)[Fuc(a1-3)[Gal(b1-4)]GlcNAc(b1-2)Man(a1-6)]Man(b1-4)GlcNAc(b1-4)GlcNAc
# Summary of the method: as §1
# [23] = molecular target: Fuc(a1-3)[Gal(b1-4)]GlcNAc(b1-3)Gal(b1-3)[Fuc(a1-4)]GlcNAc
# Summary of the method: as §1
# [24] = molecular target: Fuc(a1-3)[Gal(b1-4)]GlcNAc(b1-3)GalNAc
# Summary of the method: as §1
# [25] = molecular target: Fuc(a1-3)[Gal(b1-4)]GlcNAc(b1-4)Gal(b1-4)[Fuc(a1-3)]GlcNAc
# Summary of the method: as §1
# [26] = molecular target: Fuc(a1-3)[Gal(b1-4)]GlcNAc(b1-4)Gal(b1-4)[Fuc(a1-3)]GlcNAc(b1-4)Gal(b1-4)[Fuc(a1-3)]GlcNAc
# Summary of the method: as §1
# [27] = molecular target: Fuc(a1-3)[Gal(b1-4)]GlcNAc(b1-6)[Gal(b1-3)GlcNAc(b1-3)]Gal(b1-4)Glc
# Summary of the method: as §1
# [28] = molecular target: Fuc(a1-3)[Gal(b1-4)]GlcNAc6S
# Summary of the method: as §1
binder,measurement,setting,value
B1,glycan array binding signal (z-score),Fuc(a1-2)[Gal(a1-3)]Gal,5.96
same,glycan array binding signal (z-score),[1],-0.179
same,glycan array binding signal (z-score),[2],-0.129
same,glycan array binding signal (z-score),[3],3.09
same,glycan array binding signal (z-score),[4],5.12
same,glycan array binding signal (z-score),[5],8.05
same,glycan array binding signal (z-score),[6],0.606
same,glycan array binding signal (z-score),[7],-0.186
same,glycan array binding signal (z-score),[8],4.76
same,glycan array binding signal (z-score),[9],0.133
same,glycan array binding signal (z-score),[10],-0.141
same,glycan array binding signal (z-score),[11],-0.122
same,glycan array binding signal (z-score),[12],4.09
same,glycan array binding signal (z-score),[13],5.07
same,glycan array binding signal (z-score),[14],5.04
same,glycan array binding signal (z-score),[15],5.55
same,glycan array binding signal (z-score),[16],4.91
same,glycan array binding signal (z-score),[17],1.22
same,glycan array binding signal (z-score),[18],-0.192
same,glycan array binding signal (z-score),[19],-0.187
same,glycan array binding signal (z-score),Fuc(a1-3)GlcNAc,-0.192
same,glycan array binding signal (z-score),[20],-0.183
same,glycan array binding signal (z-score),[21],-0.192
same,glycan array binding signal (z-score),[22],-0.187
same,glycan array binding signal (z-score),[23],-0.189
same,glycan array binding signal (z-score),[24],-0.189
same,glycan array binding signal (z-score),[25],-0.183
same,glycan array binding signal (z-score),[26],-0.191
same,glycan array binding signal (z-score),[27],-0.188
same,glycan array binding signal (z-score),[28],-0.188
